Results: the BET-seq Pho4 binding data (Le et al. 2018)
Some of the results follow. These are noisy estimates, calculated here from bound and input reads.

The sequences below were run against T1, Pho4 (S. cerevisiae) (UniProt P07270) (assay: relative binding free energy (BET-seq); higher = weaker binding). Conditions: reference: library average.
T1 sequence: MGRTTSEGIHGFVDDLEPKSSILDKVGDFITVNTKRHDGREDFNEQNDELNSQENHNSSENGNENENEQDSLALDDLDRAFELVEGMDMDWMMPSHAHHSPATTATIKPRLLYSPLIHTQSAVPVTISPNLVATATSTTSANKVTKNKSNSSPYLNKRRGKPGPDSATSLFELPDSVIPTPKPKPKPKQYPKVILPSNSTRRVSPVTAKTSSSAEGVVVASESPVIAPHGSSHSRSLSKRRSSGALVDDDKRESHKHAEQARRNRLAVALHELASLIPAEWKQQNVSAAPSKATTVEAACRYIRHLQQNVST

| Sequence | relative binding free energy [kcal/mol] |
| --- | --- |
| CGTTCCACGTGTGGTT | 0.05 |
| TATATCACGTGCGTTT | 0.17 |
| GTTTTCACGTGATAGC | 0.29 |
| CTTAGCACGTGTGATA | 0.07 |
| TGCTGCACGTGTTTTA | 0.04 |
| GACGTCACGTGTGTTG | 0.25 |
| CTTGTCACGTGGGTAT | 0.03 |
| GTAATCACGTGGTATA | 0.12 |
| AAGTACACGTGTGGCG | 0.22 |
| GTGCGCACGTGCAGTG | -0.02 |
| GGATTCACGTGGTACT | 0.36 |
| GGTCTCACGTGTTTTG | 0.29 |
| AGTTGCACGTGAAAGG | 0.1 |
| TAGTACACGTGTTCGG | 0.05 |
| ATTGGCACGTGCGTTT | -0.19 |
| GAGTACACGTGATGGC | 0.28 |
| TTGGGCACGTGTGCGG | -0.1 |
| AGGTACACGTGTCATG | 0.03 |
| ATTATCACGTGTCGGA | 0.18 |
| TGTGACACGTGATATT | 0.04 |
| CGAGGCACGTGGTTGC | -0.15 |
| TTGGTCACGTGACGTG | 0.2 |
| AGTTTCACGTGACTAG | 0.39 |
| GTTGGCACGTGCGTGA | -0.08 |
| GGTAGCACGTGTTCTT | -0.03 |

| Sequence | relative binding free energy [kcal/mol] |
| --- | --- |
| GGCTTCACGTGTATAG | 0.3 |
| GATAGCACGTGAGGGC | 0.47 |
| AAATTCACGTGGGGGG | 0.11 |
| AAGTTCACGTGGTAAA | 0.16 |
| GGGTCCACGTGGGGGG | 0 |
| AGGTACACGTGGGGCT | 0.01 |
| GTGTACACGTGCGTTG | 0.08 |
| GTATTCACGTGATGCT | 0.17 |
| AGGGGCACGTGAAGGG | 0.16 |
| TGTTACACGTGGCGGG | 0.14 |
| CTTTACACGTGGAGGT | 0.03 |
| GAATTCACGTGTATAT | 0.47 |
| GGTCTCACGTGCGGTT | 0.16 |
| GACTGCACGTGGGTAG | -0.12 |
| TGTTTCACGTGATGAC | 0.43 |
| TCTTGCACGTGGGACT | -0.01 |
| TGCGTCACGTGGGGGG | -0.01 |
| TGGGTCACGTGGGCAC | -0.02 |
| GATGGCACGTGTTTGA | 0.12 |
| TTGTGCACGTGATGAT | 0.04 |
| GTATGCACGTGCTATT | -0.02 |
| ATCTTCACGTGGGCGT | 0.13 |
| TTTGGCACGTGTGGCG | 0.04 |
| GGGGGCACGTGGGGAA | -0.09 |
| CGGGGCACGTGTATAG | -0.12 |

| Sequence | relative binding free energy [kcal/mol] |
| --- | --- |
| GCAGGCACGTGAGTGG | 0.11 |
| TGGGCCACGTGAAGGA | 0.19 |
| GTGATCACGTGATGTA | 0.18 |
| TAGTACACGTGAATTG | 0.44 |
| AATGACACGTGGGGGC | -0.16 |
| AGTTTCACGTGAACGG | 0.43 |
| CGTAGCACGTGGTAGG | -0.09 |
| TTCCTCACGTGGTAGG | 0.15 |
| TGATGCACGTGCTGAG | -0.1 |
| GTAATCACGTGTGAGA | 0.2 |
| AGAACCACGTGTGGGG | 0 |
| AATTACACGTGTTAAT | 0.15 |
| AGTTGCACGTGGAGTA | -0.05 |
| GGGAACACGTGTGTGA | 0.16 |
| AATGTCACGTGTAGTT | 0.16 |
| ATGGGCACGTGTCTGT | -0.24 |
| GGGTTCACGTGTCTTT | 0.19 |
| ACGAGCACGTGTGAGT | 0.01 |
| AAGGACACGTGGTGCG | -0.07 |
| TAGTTCACGTGTAAGT | 0.22 |
| GCTGGCACGTGGATGG | -0.08 |
| TAAATCACGTGTATGA | 0.06 |
| TCTGTCACGTGTTGAG | 0.17 |
| AATGGCACGTGCAGTG | -0.07 |
| TTTTTCACGTGGGTGC | 0.19 |

| Sequence | relative binding free energy [kcal/mol] |
| --- | --- |
| ATAAACACGTGATGGG | 0.1 |
| AGTAGCACGTGGCTTG | -0.21 |
| TAGGGCACGTGCGTGC | -0.24 |
| AGCTGCACGTGGTTGA | -0.09 |
| CAGGTCACGTGATTGG | 0.18 |
| CGGTCCACGTGAGGTT | 0.37 |
| GTATTCACGTGTGTTT | 0.34 |
| AGTTTCACGTGGAGCA | 0.25 |
| TTTTGCACGTGTGGAA | 0.01 |
| TGGAACACGTGATTGT | 0.15 |
| TTGGGCACGTGAGTAC | 0.02 |
| GGGAGCACGTGTTACG | 0.03 |
| ACTTGCACGTGATATG | 0.14 |
| TTTGACACGTGGTGGC | -0.06 |
| TGATACACGTGTTGCG | 0.03 |
| GTCTGCACGTGTTTGT | -0.03 |
| GGCAACACGTGGGGTT | -0.1 |
| AGAGGCACGTGTGCAG | -0.09 |
| ATGGGCACGTGTGGTC | -0.13 |
| ATTCGCACGTGGGGGA | -0.06 |
| GAGGACACGTGTAGGG | 0.12 |
| GGGTTCACGTGGGTCA | 0.19 |
| AGGGACACGTGGAATG | -0.04 |
| CGCGTCACGTGGGGAG | -0.08 |
| GACATCACGTGTAGGG | 0.11 |

| Sequence | relative binding free energy [kcal/mol] |
| --- | --- |
| GTCGACACGTGGGTCG | -0.11 |
| TATGTCACGTGATATC | 0.23 |
| TCTGACACGTGAATGG | 0.38 |
| TTATGCACGTGGCAAG | -0.11 |
| ATTGGCACGTGGTTCT | -0.31 |
| GTTGTCACGTGGGTGG | 0.09 |
| AATTACACGTGTATTT | -0.02 |
| GTTGTCACGTGAATAG | 0.33 |
| GATATCACGTGATGGT | 0.31 |
| ACGGCCACGTGGTGTG | -0.12 |
| TAATTCACGTGTCCGG | 0.48 |
| AGGGCCACGTGAGCGG | 0.13 |
| TCGTGCACGTGCGTGC | 0.03 |
| TGGGACACGTGTAGTG | 0.2 |
| TATTGCACGTGGTCAA | -0.13 |
| CGGTGCACGTGTTGTA | -0.16 |
| AGCGGCACGTGTCTTG | 0.02 |
| GAGGGCACGTGAGGAG | 0.08 |
| CCGGGCACGTGGTATG | -0.11 |
| TGATGCACGTGGTATC | -0.1 |
| TGATACACGTGAATGG | 0.34 |
| TGCCACACGTGGGTTG | -0.05 |
| GGTTTCACGTGAAGCG | 0.31 |
| GAGTGCACGTGTGGTT | 0.07 |
| TACAGCACGTGTGTTT | -0.16 |

| Sequence | relative binding free energy [kcal/mol] |
| --- | --- |
| CATTTCACGTGGGGGG | 0.22 |
| ACGGACACGTGATGTG | 0.13 |
| GTTACCACGTGTGGAT | 0.25 |
| GTGTGCACGTGTAGCA | -0.02 |
| ATATGCACGTGTTACG | -0.03 |
| AAGCGCACGTGTTGTT | -0.1 |
| TTGGCCACGTGGTTGA | -0.09 |
| TGGCTCACGTGTAAAT | 0.37 |
| ACTTTCACGTGGTGGA | 0.16 |
| TCAGTCACGTGATTGT | 0.21 |
| CTTATCACGTGCGGTT | 0.09 |
| TGAGCCACGTGAGGTT | 0.18 |
| TTGTGCACGTGGAGGG | 0.05 |
| GATAGCACGTGGAGGG | -0.02 |
| ATTTACACGTGTGCAA | 0.36 |
| TGGTACACGTGATGTT | 0.22 |
| TTGTGCACGTGCGACG | 0.05 |
| TTGGACACGTGGCGTA | 0.01 |
| GATTGCACGTGCGGTA | 0.04 |
| ATTTGCACGTGGTAAT | -0.07 |
| AGGGTCACGTGTTTTT | 0.16 |
